In PubChem BioAssay AID1645887 (National Center for Advancing Translational Sciences (NCATS), 2021):
Where “and” joins values, the source holds several entries; their conditions need not be identical. Equal values may be shown once. About 40 (0.2%) of roughly 16,000 compounds were called active. Another 1% or so got no clear call; they are omitted. The call rests on the fitted dose curve; in most records, active means well fitted activation curve with a large enough effect; inconclusive means small, poorly fitted or top-dose-only effect, or another doubt; inactive means no such curve, though single readings can be large or run the other way. The list shows a part of the results.

These compounds were tested against Rap guanine nucleotide exchange factor 4 (Homo sapiens) (UniProt Q8WZA2) (assay: Validation qHTS for agonist of cAMP-regulated guanine nucleotide exchange factor 4 (EPAC2)). Details: EPAC2 Rap1B BODIPY-GDP exchange, fluorescence; activation: hits give high values.
Outline: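 Signal normalized against 6.5 mM cAMP as agonist control. Mix of EPAC2 (100 nM), RAP1B-BODIPY-GDP (250 nM) and GDP (50 uM) was read kinetically at 480/540 nm, every 5 min over 30 min, after 5 min room-temperature incubation with compound.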
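Further: exchange makes BODIPY-GDP fluorescence drop when released from Rap1B; series mostly up to about 150 µM.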
On the % scale 0 is the no-effect control and ±100 the full control effect.

UniProt Q8WZA2, sequence (Q8WZA2 whole entry, looked up): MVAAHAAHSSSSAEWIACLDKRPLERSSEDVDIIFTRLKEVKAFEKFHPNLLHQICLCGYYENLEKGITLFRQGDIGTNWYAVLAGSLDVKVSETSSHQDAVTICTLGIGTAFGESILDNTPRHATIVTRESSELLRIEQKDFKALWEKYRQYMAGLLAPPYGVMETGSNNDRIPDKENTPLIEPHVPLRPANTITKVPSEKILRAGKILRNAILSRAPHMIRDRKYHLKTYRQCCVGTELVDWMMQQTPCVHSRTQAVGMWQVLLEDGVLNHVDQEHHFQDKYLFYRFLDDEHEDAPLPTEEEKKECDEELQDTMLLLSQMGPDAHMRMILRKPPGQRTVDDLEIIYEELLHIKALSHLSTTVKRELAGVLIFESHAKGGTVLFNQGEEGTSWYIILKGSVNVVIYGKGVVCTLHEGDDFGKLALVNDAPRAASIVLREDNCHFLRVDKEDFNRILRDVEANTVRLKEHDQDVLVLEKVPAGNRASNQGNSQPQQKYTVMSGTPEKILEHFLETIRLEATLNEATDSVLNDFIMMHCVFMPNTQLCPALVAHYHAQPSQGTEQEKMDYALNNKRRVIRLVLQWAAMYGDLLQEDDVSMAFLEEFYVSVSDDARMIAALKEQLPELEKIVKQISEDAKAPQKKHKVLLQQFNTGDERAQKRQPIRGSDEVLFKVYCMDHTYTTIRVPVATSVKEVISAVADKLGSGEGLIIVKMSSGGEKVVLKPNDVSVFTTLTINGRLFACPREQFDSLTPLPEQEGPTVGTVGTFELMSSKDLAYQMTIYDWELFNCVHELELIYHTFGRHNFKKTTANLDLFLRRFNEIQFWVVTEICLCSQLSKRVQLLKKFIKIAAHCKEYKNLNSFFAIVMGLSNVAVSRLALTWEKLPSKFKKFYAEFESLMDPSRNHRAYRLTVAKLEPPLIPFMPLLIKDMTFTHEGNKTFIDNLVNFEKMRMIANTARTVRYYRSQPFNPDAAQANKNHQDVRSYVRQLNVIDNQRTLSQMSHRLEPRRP

activation, inactive:
COc1ncc2nc(-c3cc(F)cc(F)c3)c(=O)n(CCc3ccccc3)c2n1 -15.6%
COC(=O)CC[C@H](N)C(=O)O -14%
CCCC(=O)Nc1c(I)cc(I)c(CC(CC)C(=O)O)c1I (stereo unspecified) -9.2%
CN(C)C(=O)c1ccc(-c2cc(NCc3cccnc3)ncn2)cc1 -13.5%
COc1cc(=O)n2c(c1C(=O)NC(C)c1ccco1)CCN(C(=O)c1cccc(C)c1)CC2 (stereo unspecified) 4.08%
CC(C)(CNC(=O)c1cnn(-c2nccc(-c3cccs3)n2)c1C1CC1)N1CCOCC1 -20.7%
C[C@@H]1CCN(C(=O)[C@H](CCCN=C(N)N)NS(=O)(=O)c2cccc3c2NC[C@H](C)C3)[C@@H](C(=O)O)C1 -21.7%
COc1cccc(C(=O)N(Cc2cc3ccc(C)cc3nc2N(C)C)C2CC2)c1OC -2.09%
O=C(c1cccc(F)c1)N1CCC2(CC1)CCN(C(c1ccccc1)c1ccccc1)CC2 6.52%
O=C(C[N+]12CCCc3cccc(c31)CCC2)c1ccc2ccc3cccc4ccc1c2c34 -23.2%
Cc1nc2cnc(OCc3ccccc3)nc2n(Cc2ccc(F)cc2)c1=O -5.75%
N#Cc1cccc(-c2nc3cnc(N4CCOCC4)nc3n(Cc3ccc(F)cc3)c2=O)c1 1.03%
COc1ccc(CNc2nc(-c3ccc(C(=O)N(C)C)cc3)nc3ccccc23)c(OC)c1 -10.5%
Cc1cc(=O)c(C(=O)N(C)CCc2ccccn2)c2n1-c1ccccc1SC(c1ccsc1)C2 (stereo unspecified) 3.09%
Cc1oc(-c2ccccc2NC(=O)C2CCCO2)nc1CNC(=O)c1cc(Cl)ccc1F (stereo unspecified) -4.56%
Nc1ccn([C@H]2CC[C@@H](CO)O2)c(=O)n1 -10.7% and -5.47% and -19.5%
COC(=O)c1c(OCc2cccnc2)cc(=O)n2c1CCN(Cc1cc3c(cc1Cl)OCO3)CC2 0.589%
N#Cc1ccc(CN2CCCC3(CCN(C(=O)c4ccncc4)CC3)C2)cc1 -14.6%
O=C1c2ccc(O)c(O)c2C(=O)c2c(O)ccc(O)c21 -0.857%
NC(=S)NS(=O)(=O)c1ccc(N)cc1 -3.42%
CN(C(=O)C(Cl)Cl)c1ccc(OC(=O)c2ccco2)cc1 -3.75%
NC[C@](O)(CS(=O)(=O)O)c1ccc(Cl)cc1 -1.67%
C[Si](C)(C)O[Si](C)(C)C 6.08%
COc1cc(-c2noc(C)c2C#Cc2ccccn2)cc(OC)c1OC -22.3%
Cn1cccc1C(=O)N1CCC2(CC1)CCN(c1cccc(-c3ccccc3)c1)CC2 0.0496%
COc1ncc2ncc(=O)n(Cc3ccc(F)cc3)c2n1 -11.7%
CCOc1cc(OCC)c(C(=O)CCC(=O)O)cc1OCC 9.24%
CCOC(=O)Nc1ccc2c(c1)N(C(=O)CN(C)C)c1ccccc1CC2 -3.7%
CN(Cc1ccco1)c1nc(-c2ccc3c(c2)OCO3)nc2ccccc12 5.19%
CCOc1ccc2nc(N3CCCC3C(=O)N3CCC(c4nc5ccccc5o4)CC3)nc(C)c2c1 (stereo unspecified) 2.5%
COc1ccccc1N1CCN(CCCCN2C(=O)c3ccccc3C2=O)CC1 -24% and 10.9% and -68.2%
Cc1cnc(CNc2cc(-c3ccc(C(=O)N(C)C)cc3)ncn2)cn1 -0.0716%
CC(=O)c1ccc(F)c(-c2cc(C)cc3c2OC(CNC(=O)Cc2ccc4c(c2)OCO4)C3)c1 (stereo unspecified) 1.14%
CC(C)c1c(C(=O)N(C)CC2CCCN(C)C2)cnn1-c1nccc(-c2cccs2)n1 (stereo unspecified) 2.97%
Nc1ncnc2[nH]c(=O)[nH]c12 -10.5%
Cc1cccc(C)c1OCC(C)N (stereo unspecified) -23.8% and -8.12% and -25.3%
CCN(Cc1ccncc1)Cc1ccc2c(c1)CN(C(=O)c1ccc(C#CC(C)(C)O)o1)CCO2 -8.5%
COC(=O)[C@@H]1C2CC3c4[nH]c5cc(OC)ccc5c4CCN3CC2C[C@H](OC(=O)c2cc(OC)c(OC)c(OC)c2)C1OC (stereo partly specified) 20.8%
O=C(/C=C/c1ccc(O)cc1)c1cccs1 4.67%
CC(=O)Oc1c(C)cc(OCC(O)CNC(C)C)c(C)c1C (stereo unspecified) -3.35%
CCN(CC)CCCC(C)Nc1cc(/C=C/c2ccccc2Cl)nc2cc(Cl)ccc12 (stereo unspecified) 16.5%
CC(=O)N1CCC2(CC1)CN(Cc1ccccc1)C2 7.42%
COc1ccccc1OCC(O)CO (stereo unspecified) 6.25% and -8%
CCCCCc1ccc(-c2cn(Cc3ccc(C)cc3)nn2)cc1 -11.6%
NC[C@@H]1O[C@H](O[C@H]2[C@@H](O)[C@H](O[C@@H]3[C@@H](O)[C@H](N)C[C@H](N)[C@H]3O[C@H]3O[C@H](CO)[C@@H](O)[C@H](O)[C@H]3N)O[C@@H]2CO)[C@H](N)[C@@H](O)[C@@H]1O 9.73%
CN1C(=O)CC(CC(=O)N2CCCCC2CCO)(c2cccc(F)c2)C1=O (stereo unspecified) -14.1%
CC[C@]1(O)C[C@H]2CN(CCc3c([nH]c4ccccc34)[C@@](C(=O)OC)(c3cc4c(cc3OC)N(C=O)[C@H]3[C@@](O)(C(=O)OC)[C@H](OC(C)=O)[C@]5(CC)C=CCN6CC[C@]43[C@@H]65)C2)C1 -3.47%
O=c1c(-c2ccc(Cl)cc2)nc2cnc(N3CCOCC3)nc2n1CCc1ccccc1 -10.4%
COc1cc(C)c2c(c1C=O)Oc1c(c(C)c(O)c3c1C(O)OC3=O)OC2=O (stereo unspecified) -10.8% and -6.81%
CC1(COc2ccc(C[C@H]3SC(=O)NC3=O)cc2)CCCCC1 -43%
COc1ccccc1C1CN(CCNC(=O)c2ccccc2Cl)Cc2ccccc2O1 (stereo unspecified) 0.445%
